Source: PubChem BioAssay AID1030 (National Center for Advancing Translational Sciences (NCATS), 2008)
Hit rate of the full screen: of about 220,000 compounds, about 16,000 (7.3%) were called active. This list was built around the results that the source calls inconclusive (neither active nor inactive); the mix of calls is not that of the screen. Calls follow the shape of the dose curve; as a rule, active = well fitted inhibition curve with a large enough effect (not every such curve was filed as active); inconclusive = small, poorly fitted or top-dose-only effect, or another doubt; inactive = no such curve, though single readings can be large or run the other way. Potencies of inconclusive entries are left out as doubtful fits.

Molecular target: Aldehyde dehydrogenase 1A1 (Homo sapiens) (UniProt P00352)
Test: qHTS Assay for Inhibitors of Aldehyde Dehydrogenase 1 (ALDH1A1);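 as to activity, negative = inhibition: plate controls were no enzyme wells and a reference inhibitor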
Conditions: Purified ALDH1A1, NADH fluorescence, propionaldehyde substrate; series mostly up to 75.3 µM; activity, negative = inhibition: at the top concentration
Potency is read from the fitted curve at half-maximal effect; tags tell the direction and shape of the fitted curve.

UniProt P00352, sequence (P00352 whole entry, looked up): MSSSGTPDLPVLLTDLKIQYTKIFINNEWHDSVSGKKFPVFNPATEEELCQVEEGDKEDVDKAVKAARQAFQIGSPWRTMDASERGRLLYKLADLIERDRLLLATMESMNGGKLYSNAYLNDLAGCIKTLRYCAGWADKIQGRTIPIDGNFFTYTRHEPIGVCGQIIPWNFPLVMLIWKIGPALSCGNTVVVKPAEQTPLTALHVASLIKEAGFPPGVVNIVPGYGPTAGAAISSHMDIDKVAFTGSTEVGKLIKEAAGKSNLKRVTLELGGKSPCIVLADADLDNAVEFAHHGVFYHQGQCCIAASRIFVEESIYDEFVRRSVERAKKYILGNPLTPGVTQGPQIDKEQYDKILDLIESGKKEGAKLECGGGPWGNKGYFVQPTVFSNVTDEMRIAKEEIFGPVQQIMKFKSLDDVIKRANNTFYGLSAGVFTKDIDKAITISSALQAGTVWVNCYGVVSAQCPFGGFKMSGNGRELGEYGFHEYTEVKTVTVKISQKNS

SMILES | Potency | activity, negative = inhibition
CCN(CC)C(=O)C1CCCN(Cc2sccc2C)C1 (configuration not stated) | inconclusive [inhibitor, single point] | –
CCCN(C(=O)CSc1nnc(-c2ccoc2C)n1N)C1CCS(=O)(=O)C1 (configuration not stated) | active: 20 µM | –
CC1CCN(C(=O)c2cc(-c3ccccc3O)on2)CC1 | active: 14.1 µM | –
COc1ccc(-n2c(=O)c3c4c(sc3n3c(=S)[nH]nc23)CCCC4)cc1 | – | inactive: -12.3%
CC1=C(c2ccc(Cl)cc2)[N+](=O)C(C)(C)N1[O-] | – | inactive: 6.04%
Clc1ccc(-c2nc(C3CCCCC3)no2)cc1 | – | inactive: -6.01%
CNS(=O)(=O)c1ccc(NC(=S)Nc2ccc3c(c2)OCO3)cc1 | active: 5.01 µM | –
CC(=O)c1cccc(S(=O)(=O)Nc2cccc(S(=O)(=O)NC3=NCCC3)c2)c1 | inconclusive [inhibitor, single point] | –
CCOC(=O)c1cc(C)sc1/N=C/C1=C(O)CCCC1=O | – | inactive: 0.603%
COc1ccc(C(=O)NC(=S)Nc2ccccc2N2CCOCC2)cc1Br | inconclusive [inhibitor, single point] | –
O=C(O)CC1CCCc2ccccc2C1O (configuration not stated) | – | inactive: 5.15%
CCn1cc(C(=O)NCc2ccc3c(c2)OCO3)c(=O)c2cc(F)c(N3CCN(C)CC3)cc21 | inconclusive [inhibitor, partial curve] | –
O=C(O)c1ccc(NS(=O)(=O)c2cccc3cccnc23)cc1 | – | inactive: -3.46%
COc1ccc(N(C(=O)Cc2cccs2)C2C=CS(=O)(=O)C2)cc1 (configuration not stated) | active: 28.2 µM | –
CCCn1c(SCC(=O)N2CCN(c3ccc(OC)cc3)CC2)nc2c1c(=O)n(C)c(=O)n2C | inconclusive [inhibitor, single point] | –
O=C(COc1ccc(Cl)cc1Cl)NC(=O)N1CCCCC1 | – | inactive: 4%
Cc1c([N+](=O)[O-])c(C(=O)Sc2ccc(Br)cc2)nn1C | inconclusive [inhibitor, single point] | –
COc1ccc(CC(=O)NCc2nnc(SCC(=O)Nc3nccs3)n2C)cc1 | – | inactive: -7.51%
O=C(Oc1cc(-c2ccccc2)no1)c1cccc(C(F)(F)F)c1 | active: 7.94 µM | –
N#Cc1nc(-c2ccco2)oc1N1CCOCC1 | inconclusive [inhibitor, partial curve] | –
CC(SCC(=O)NC12CC3CC(CC(C3)C1)C2)C(=O)O (configuration not stated) | – | inactive: 10.2%
COC(=O)c1sc(N)c(C(=O)OC)c1COC(=O)[C@@H](NS(=O)(=O)c1cccc(Cl)c1)C(C)C | inconclusive [inhibitor, partial curve] | –
CCCSC1=C(C#N)C(c2ccc(OC)cc2)C2=C(CC(C)(C)CC2=O)N1 (configuration not stated) | inconclusive [inhibitor, partial curve] | –
C[N+]1(C2CCC3CCC2C3O)CCCC1 (configuration not stated) | – | inactive: 6.57%
CC1CCc2c(sc(NC(=O)Cn3nc(C(F)(F)F)c4c3CCCCC4)c2C#N)C1 (configuration not stated) | active: 25.1 µM | –
CC(C)(C)[C@H]1C=C(C(=O)NC2CC2)O[C@@H](OCCCCO)C1 | – | inactive: -11.5%

SMILES | Potency | activity, negative = inhibition
COC(=O)[C@@H](NC(=O)NC1CCCc2ccccc21)C(C)C (some centres not stated) | – | inactive: 14.3%
Cc1nnc(N/N=C/c2cc([N+](=O)[O-])c(N3CCC(C)CC3)cc2N2CCC(C)CC2)n1N | active: 7.08 µM | –
Cc1cc(NC(=O)c2cc(-c3ccc(Br)cc3)on2)no1 | inconclusive [inhibitor, single point] | –
CC(C)CC(OC(=O)c1cccs1)C(=O)NCc1ccco1 (configuration not stated) | inconclusive [inhibitor, single point] | –
Cc1ccc2nc(N3CCN(C)CC3)c(C#N)cc2c1 | inconclusive [inhibitor, partial curve] | –
Cc1ccc(S(=O)(=O)N2CCCOC2CNC(=O)C(=O)NC2CCCCC2)cc1 (configuration not stated) | inconclusive [inhibitor, single point] | –
Cc1ccc(NC(=O)COC(=O)/C=C/c2cccs2)cc1 | – | inactive: 11.2%
CCCn1c(=O)c2ccccc2n2c(SCCOc3ccc(C)cc3)nnc12 | inconclusive [inhibitor, single point] | –
CCn1c2ccc(CC(=O)O)cc2c2cc(CC(=O)O)ccc21 | inconclusive [inhibitor, single point] | –
COc1cccc(NC(=O)Nc2nccc(C)n2)c1 | – | inactive: 6.02%
COc1cccc(Nc2ncc3nc(CCc4ccccc4)c(=O)n(C[C@H]4CCCO4)c3n2)c1 | active: 25.1 µM | –
COc1ccc(CC2(CO)CCN(CC3=Cc4cc(Cl)ccc4OC3)CC2)cc1 | – | inactive: 15.7%
CCN(CC)S(=O)(=O)c1ccc(N2CCCCC2)c(NC(=O)/C(C#N)=C/c2ccc(OC)cc2)c1 | inconclusive [inhibitor, partial curve] | –
COc1ncc2nc(-c3ccc(F)cc3)c(=O)n(Cc3ccc(F)cc3)c2n1 | inconclusive [inhibitor, single point] | –
CCCc1nc2ccccc2n1C(=S)SC | – | inactive: -9.26%
CCC1=NN2C(=N)/C(=C\c3cccn3-c3c(C)cccc3C)C(=O)N=C2S1 | – | inactive: -3.6%
Cc1ccc(S(=O)(=O)NCc2ccc(C(=O)N3CCc4ccccc4C3)cc2)cc1 | inconclusive [inhibitor, partial curve] | –
CC1CCCCN1C(=O)C1CC(c2ccc(F)cc2)=NO1 (configuration not stated) | active: 0.316 µM | –
Cc1nn(-c2ccccc2)c(Cl)c1/C=N/NC(=O)c1cccc(S(=O)(=O)N2CCCC2)c1 | inconclusive [inhibitor, single point] | –
CCCn1nc2cc(C(=O)NCCCCc3ccccc3)ccc2c1OCC | inconclusive [inhibitor, partial curve] | –
CCN(CC)CCNc1nc2cc(OC)c(OC)cc2c2nc(-c3ccccc3)nn12 | – | inactive: 4.04%
CCOc1cc(C(=O)CCC(=O)OCC(=O)Nc2ccc(C)c(S(=O)(=O)N(C)C)c2)ccc1O | active: 28.2 µM | –
O=C(O)c1ccccc1-c1ccc(/C=c2\sc3nc4cc(Br)cnc4n3c2=O)o1 | active: 22.4 µM | –
Cc1ccc(S(=O)(=O)NC(=O)Nc2c(C)n(C)n(-c3ccccc3)c2=O)cc1 | – | inactive: 1.76%
O=C(CS(=O)(=O)c1c[nH]c2ccccc12)N1CCCc2ccccc21 | inconclusive [inhibitor, single point] | –
O=C(CSc1nnc(-c2cccs2)o1)OC1CCCCC1 | inconclusive [inhibitor, single point] | –

SMILES | Potency | activity, negative = inhibition
COCCCNc1c2c3c(cccc3[nH]c1=O)C(=O)c1ccccc1-2 | inconclusive [inhibitor, partial curve] | –
Cc1nc2cnc(N3CCN(C)CC3)nc2n(Cc2cccs2)c1=O | inconclusive [inhibitor, single point] | –
Cc1cc(N2CCC(C)CC2)nc(-c2ccccc2O)n1 | inconclusive [inhibitor, single point] | –
CN(C)c1oc(-c2cccs2)nc1C#N | inconclusive [inhibitor, partial curve] | –
Cc1cc(Cl)ccc1OCC(=O)NC1CCCC1 | – | inactive: 5.89%
COc1cc2[nH]cc(C(=O)NCCc3ccccc3)c(=O)c2cc1OC | inconclusive [inhibitor, single point] | –
COc1ccc(C(=O)c2c[nH]c(C(=O)NCc3ccco3)c2)cc1 | inconclusive [inhibitor, single point] | –
COCCNC(=O)[C@H](C)/C=C(\c1cccnc1)C(NC(=O)OCc1ccccc1)c1ccc(C(=O)OC)cc1 (some centres not stated) | – | inactive: -3.86%
Cc1cccc(Oc2nc(-c3ccccc3)cc(C)c2S(C)(=O)=O)c1C | inconclusive [inhibitor, single point] | –
Cc1n[nH]c(C)c1S(=O)(=O)N(CC(=O)Nc1ccc2c(c1)OCCO2)c1ccc(C(C)C)cc1 | inconclusive [inhibitor, partial curve] | –
O=c1cc(CSc2nnc3ccccn23)c2c(ccc3ccccc32)o1 | inconclusive [inhibitor, single point] | –
COc1ccc(-c2nn3c(-c4ccc(F)cc4)nnc3s2)cc1 | inconclusive [inhibitor, single point] | –
COC(=O)c1ccccc1NC(=O)CN1C(=O)C2CCCN2c2ncc(Cl)cc21 (configuration not stated) | inconclusive [inhibitor, partial curve] | –
CC1CCN(C(=O)c2cc(F)c(F)cc2Cl)CC1 | – | inactive: 2.76%
COc1ccc(CCNC(=O)Cc2cc(OC)c(OC)cc2Br)cc1OC | – | inactive: 5.37%
S=c1nc(C23CC4CC(CC(C4)C2)C3)nc2sccn12 | inconclusive [inhibitor, single point] | –
O=C(Cc1coc2ccc3ccccc3c12)NCc1ccccc1 | – | inactive: -13.4%
Cc1ccc(C(=O)Nc2ccc(S(=O)(=O)N3CCN(C)CC3)cc2)o1 | inconclusive [inhibitor, partial curve] | –
COc1ccc(C2NC(=S)NC3=C2CCCC3=C2SCCS2)cc1 (configuration not stated) | inconclusive [inhibitor, full curve] | –
Cc1cc(C(=O)NCC(=O)OCC(=O)Nc2ccc(OC(F)F)cc2)ccc1[N+](=O)[O-] | active: 3.16 µM | –
Cc1noc(C)c1COC(=O)CCCc1c[nH]c2ccccc12 | active: 14.1 µM | –
CCCSc1nc(N)c2c3c(sc2n1)CN(C)CC3 | inconclusive [inhibitor, single point] | –
CCCCN(CC(=O)Nc1c(C)cccc1CC)C(=O)SCC | – | inactive: 9.31%
CCC(C(=O)OCC(=O)Nc1cc(C)ccc1OC)c1ccccc1 (configuration not stated) | – | inactive: -5.07%
CC(=O)Nc1cccc(NC(=O)CSc2nc3ccccc3o2)c1 | – | inactive: -0.426%
